# Measurements taken from the supplement of paper PMC7826260.
# Some of the results follow. Each Rep nickase domain was tested in vitro on the same pool of single strands (3 µM enzyme, 1 h, 37 °C); shown is the middle of each 90-letter strand. Values are log2 of uncut reads against the no-enzyme pool; strong cutting gives strongly negative numbers. There is no active / inactive call. The scaling is to total reads; values above 0 arise when much of the pool is cut.
# How the values were obtained:
# Assay in all cases: uncleaved DNA left, log2 of reads against the no-enzyme library (log2 ratio); higher = less cleavage (more negative = more Rep cleavage of the k-mer); sequences stand for … in CTCGTCCG…ACCGGAGA
# [1] = test system: T1, Rep nickase domain of Muscovy duck circovirus
# T1 sequence (protein, residues 1-111, tag omitted): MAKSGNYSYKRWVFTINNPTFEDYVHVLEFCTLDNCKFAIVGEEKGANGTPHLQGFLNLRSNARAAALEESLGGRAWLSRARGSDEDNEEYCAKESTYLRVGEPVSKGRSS
# Description: (§1)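 A pool of 90-nt single-stranded DNAs with seven random bases just before the constant AC of the nick site (name = the seven bases) was cut by 3 µM recombinant His6-SUMO-tagged Rep nickase domain (300 nM DNA, 50 mM HEPES pH 8.0, 50 mM NaCl, 1 mM MnCl2, 1 h, 37 °C, three replicates). Uncut DNA was amplified and sequenced.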
# [2] = test system: T2, Rep nickase domain of banana bunchy top virus
# T2 sequence (protein, residues 1-94, tag omitted): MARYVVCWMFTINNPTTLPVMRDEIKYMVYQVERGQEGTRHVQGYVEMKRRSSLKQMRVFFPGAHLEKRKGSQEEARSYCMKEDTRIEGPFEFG
# Description: as §1
# [3] = test system: T3, Rep nickase domain of cabbage leaf curl virus
# T3 sequence (protein, residues 1-116, tag omitted): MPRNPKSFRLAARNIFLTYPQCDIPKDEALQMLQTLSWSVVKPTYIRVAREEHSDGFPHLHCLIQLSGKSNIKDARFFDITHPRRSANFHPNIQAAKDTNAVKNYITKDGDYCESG
# Description: as §1
# [4] = test system: T4, Rep nickase domain of chickpea chlorotic dwarf virus
# T4 sequence (protein, residues 1-124, tag omitted): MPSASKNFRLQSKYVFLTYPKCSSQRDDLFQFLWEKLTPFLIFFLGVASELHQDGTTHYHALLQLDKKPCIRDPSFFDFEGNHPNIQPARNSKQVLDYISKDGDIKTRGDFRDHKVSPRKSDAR
# Description: as §1
# [5] = test system: T5, Rep nickase domain of faba bean necrotic yellows virus
# T5 sequence (protein, residues 1-98, tag omitted): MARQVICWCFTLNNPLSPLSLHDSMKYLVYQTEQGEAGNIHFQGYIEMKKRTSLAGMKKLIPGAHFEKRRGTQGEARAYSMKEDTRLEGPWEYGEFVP
# Description: as §1
# [6] = test system: T6, Rep nickase domain of maize striate mosaic virus
# T6 sequence (protein, residues 1-117, tag omitted): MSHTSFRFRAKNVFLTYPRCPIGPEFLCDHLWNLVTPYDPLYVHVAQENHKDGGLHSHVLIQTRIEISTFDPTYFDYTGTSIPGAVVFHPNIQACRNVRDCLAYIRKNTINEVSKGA
# Description: as §1
# [7] = test system: T7, Rep nickase domain of porcine circovirus 2
# T7 sequence (protein, residues 2-116, tag omitted): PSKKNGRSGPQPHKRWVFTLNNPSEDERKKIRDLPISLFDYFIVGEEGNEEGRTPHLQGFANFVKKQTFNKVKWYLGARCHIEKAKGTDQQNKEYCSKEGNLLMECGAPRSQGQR
# Description: as §1
# [8] = test system: T8, Rep nickase domain of tomato golden mosaic virus
# T8 sequence (protein, residues 1-124, tag omitted): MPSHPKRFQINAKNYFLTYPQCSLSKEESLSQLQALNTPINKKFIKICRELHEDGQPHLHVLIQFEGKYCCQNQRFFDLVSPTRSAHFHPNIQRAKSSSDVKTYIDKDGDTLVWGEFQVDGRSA
# Description: as §1
# [9] = test system: T9, Rep nickase domain of tomato yellow leaf curl virus
# T9 sequence (protein, residues 1-136, tag omitted): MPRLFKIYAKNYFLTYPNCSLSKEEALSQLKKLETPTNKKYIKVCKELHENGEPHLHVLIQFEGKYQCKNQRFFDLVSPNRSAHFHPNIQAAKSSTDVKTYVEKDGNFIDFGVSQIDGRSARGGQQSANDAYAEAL
# Description: as §1
# [10] = test system: T10, Rep nickase domain of wheat dwarf virus
# T10 sequence (protein, residues 1-137, tag omitted): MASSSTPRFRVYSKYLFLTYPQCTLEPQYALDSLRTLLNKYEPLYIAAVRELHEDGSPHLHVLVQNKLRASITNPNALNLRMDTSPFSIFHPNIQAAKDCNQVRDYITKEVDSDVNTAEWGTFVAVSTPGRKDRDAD
# Description: as §1
Sequence,uncleaved DNA left (log2) [1],uncleaved DNA left (log2) [2],uncleaved DNA left (log2) [3],uncleaved DNA left (log2) [4],uncleaved DNA left (log2) [5],uncleaved DNA left (log2) [6],uncleaved DNA left (log2) [7],uncleaved DNA left (log2) [8],uncleaved DNA left (log2) [9],uncleaved DNA left (log2) [10]
CGATATT,-2.98,-0.867,-1.12,-2.35,0.0382,-0.302,-3.38,-0.454,0.071,-1.44
GAACAAA,-0.0801,0.0472,0.355,0.568,0.0332,1.05,0.0469,-0.00348,0.0297,0.104
TCGGCCG,0.117,0.0775,-0.847,-0.42,-0.0523,-1.05,0.178,-0.0647,0.00339,-0.0829
TGGTCCA,-0.0495,0.121,0.238,0.093,-0.0519,0.822,-0.152,-0.109,0.121,0.106
GAATGCC,-0.0186,-0.0313,-0.572,-0.879,0.00515,-0.718,-0.05,-0.0795,0.0325,-0.0856
TCTGCCG,-0.101,-0.0555,-0.822,-0.216,0.0131,-0.916,0.0799,-0.0191,-0.0856,-0.0294
GACCACT,-0.0133,-0.0378,0.0576,-2.17,-0.0544,0.178,-0.554,-0.0522,0.0364,0.0326
GGTGCCG,0.09,-0.0717,-0.517,-0.179,-0.0801,-0.38,0.182,-0.122,-0.0336,-0.114
GCCCGAA,0.114,0.0716,0.363,0.747,0.0628,0.354,0.255,-0.103,0.0184,0.0759
GGATCCA,0.0529,0.0632,0.429,0.955,0.0721,1.37,0.155,0.0129,0.109,0.0957
TTGGCTA,-0.0471,-0.0284,0.00573,-0.239,-0.0719,-0.0854,-0.0568,-0.128,-0.0622,-0.17
CTTCGCC,-0.0263,-0.0867,-0.136,-0.415,0.00685,-0.805,-0.11,-0.24,-0.11,-0.152
TGGTAAG,0.072,-0.0159,-0.536,-0.512,0.0565,-0.835,0.157,0.141,-0.0326,0.027
TTGAACG,-0.0437,0.0493,-0.654,-0.564,-0.091,-1,0.156,0.00242,0.0854,-0.0409
GTTTACG,0.0842,0.0339,-0.372,-0.654,0.0364,-0.567,0.174,0.0777,0.0389,-0.0467
CGGGGGG,0.109,-0.0655,0.178,0.446,0.0963,0.378,0.0623,0.16,-0.0316,-0.0599
ATTTATT,-3.63,-4.1,-1.05,-3.08,-1.03,-0.786,-4.37,-0.687,-0.0891,-1.5
TTTTGAT,-1.62,-0.0597,0.0884,-0.295,0.0932,0.18,-2.14,-0.0471,0.00555,0.0432
GGATTAC,-0.0282,0.0659,0.488,0.887,-0.064,1.78,0.0703,-0.00188,0.0724,0.0845
GCGCGGC,0.0553,0.121,0.0847,0.333,0.0843,0.105,0.149,0.169,0.0112,0.126

Sequence,uncleaved DNA left (log2) [1],uncleaved DNA left (log2) [2],uncleaved DNA left (log2) [3],uncleaved DNA left (log2) [4],uncleaved DNA left (log2) [5],uncleaved DNA left (log2) [6],uncleaved DNA left (log2) [7],uncleaved DNA left (log2) [8],uncleaved DNA left (log2) [9],uncleaved DNA left (log2) [10]
TAAGTTT,-0.144,-0.192,-4.3,-2.75,-0.112,-2.79,-1.32,-3.44,-0.0558,-3.8
GTTTTTG,0.0969,0.0694,0.222,0.521,0.123,0.53,0.16,0.148,0.0861,0.134
GTCTATC,-0.0482,-0.0723,0.172,0.771,-0.161,1.43,-0.0872,-0.0846,-0.117,-0.0951
ATAGAGT,0.172,-0.00351,-0.122,0.133,0.00643,-0.321,0.0538,0.0825,-0.106,-0.0518
AGACTTT,0.0727,-0.0693,0.352,0.156,-0.0324,1.53,-0.172,0.00179,0.01,0.0326
TCAATCC,0.0633,0.0109,-0.00847,0.178,0.0192,0.673,0.0489,-0.0926,0.0886,0.033
CTACAAG,0.0657,-0.0484,-0.72,-0.856,-0.0627,-1.03,0.169,-0.00427,0.12,-0.0874
TCTTGTT,-3.02,-0.945,-0.85,-2.43,0.0141,-1.04,-3.1,-0.154,0.0439,-0.665
CACGACC,0.0184,-0.00552,-0.0619,0.168,0.025,-0.495,-0.0393,0.0848,-0.0927,0.0469
TGAGCTC,-0.102,-0.00771,0.118,0.284,0.0187,0.686,0.0416,0.0257,0.0167,-0.0853
ATGAAAA,0.0143,-0.0104,0.0615,0.0744,0.0255,-0.702,-0.0229,0.0578,-0.0766,0.0107
CTTCTGT,-0.000254,-0.0689,-0.111,-0.585,-0.0918,-0.682,-0.0806,-0.164,-0.0639,-0.0809
CAGACAC,-0.0362,0.137,0.199,0.557,-0.000532,0.453,0.016,-0.131,0.0698,0.0949
TGGGCGA,0.0826,0.0509,0.124,0.423,0.164,0.0101,0.211,0.136,0.079,0.017
TCTATTT,-0.149,0.00223,-0.0949,-2.45,0.00339,-0.422,-0.965,0.00772,0.0156,-0.24
CGTTAAG,0.00779,0.0927,-0.743,-0.206,0.0521,-0.932,0.162,-0.0697,0.11,-0.0728
GCCCCAC,-0.169,0.0759,0.0574,0.26,-0.0365,0.0916,-0.148,-0.12,0.0369,0.0593
AAAGTGT,0.19,0.0799,0.122,0.614,0.1,0.742,0.207,0.163,0.0404,0.0443
TCCAAAT,0.00432,0.0738,-0.00071,-0.376,-0.147,-0.252,-0.197,-0.00433,0.0631,0.00608
CAAGCCT,-0.104,-0.245,-0.986,-2.71,-0.13,-0.497,-0.277,-0.261,-0.209,-0.215

Sequence,uncleaved DNA left (log2) [1],uncleaved DNA left (log2) [2],uncleaved DNA left (log2) [3],uncleaved DNA left (log2) [4],uncleaved DNA left (log2) [5],uncleaved DNA left (log2) [6],uncleaved DNA left (log2) [7],uncleaved DNA left (log2) [8],uncleaved DNA left (log2) [9],uncleaved DNA left (log2) [10]
TCGCTAT,0.057,-0.178,-0.0947,-0.776,-0.14,-0.554,-0.127,-0.127,0.0193,-0.168
TGCTCCA,-0.0287,-0.0383,0.142,-0.254,0.0295,0.106,-0.166,-0.0208,-0.00984,0.0693
CGCCAAG,-0.0224,-0.0272,-0.554,-0.392,-0.147,-0.875,0.0195,-0.129,0.0296,-0.175
ACGGACA,0.0818,0.0323,0.245,0.503,0.00402,1.08,0.164,0.135,0.0417,0.0867
CTAGTGG,0.0125,0.0741,0.176,0.864,0.161,0.314,0.193,0.143,0.00976,0.077
ATCGTCG,-0.0812,0.0611,-0.893,-0.101,0.0144,-1.1,0.0729,-0.246,-0.00963,-0.128
GTAAGTA,0.215,0.122,0.168,-0.113,0.0541,1.39,0.0511,0.11,0.176,0.132
GCCTTGT,-0.0358,-0.108,0.012,0.27,-0.0326,-0.274,-0.174,0.00783,0.0475,-0.152
TATATTG,-0.0567,-0.0628,-0.506,-0.657,-0.0131,-1.2,0.0349,-0.0534,-0.0374,-0.0686
CACCAAG,-0.0343,0.105,-0.881,-0.282,0.0281,-0.951,0.0885,-0.151,0.0331,-0.0507
CAGCAGG,0.00399,0.0356,-0.0746,0.187,0.132,-0.56,0.0801,0.174,0.0324,-0.0231
AGACTGG,0.185,0.0524,0.128,0.702,-0.0422,0.932,0.163,0.0373,-0.0653,0.0887
GGGTGAT,-0.00729,0.102,0.676,1.83,-0.142,2.14,-0.335,-0.132,-0.0484,0.0143
TATGGAC,0.0592,0.136,0.478,1.27,-0.0164,1.27,0.169,0.115,0.0808,0.176
TGCAGGA,0.152,0.0685,0.0373,0.402,0.0735,-0.195,0.0996,0.103,0.064,0.079
AGTGGCG,0.188,0.000751,-0.616,-0.342,0.0663,-0.693,0.18,0.119,0.0223,-0.0948
TGTGCAC,-0.0646,0.0664,0.178,0.621,-0.0669,0.766,0.037,0.104,0.0443,0.0769
TATTTAT,-3.33,-2.93,-0.018,-0.996,0.0265,1.05,-3.73,0.074,0.00579,0.0137
TGGTATA,-0.0174,0.059,0.274,-0.117,0.0265,0.939,-0.126,0.0727,0.0255,0.0983
ACAGAGC,0.125,0.0451,-0.423,-0.513,0.0548,-1.07,0.244,0.0316,0.268,0.00203
